This passage reports binding results from PMC4685312.

By UniProt entry, the sequences of proteins in these tests, tags left out.
UniProt Q9BSM1: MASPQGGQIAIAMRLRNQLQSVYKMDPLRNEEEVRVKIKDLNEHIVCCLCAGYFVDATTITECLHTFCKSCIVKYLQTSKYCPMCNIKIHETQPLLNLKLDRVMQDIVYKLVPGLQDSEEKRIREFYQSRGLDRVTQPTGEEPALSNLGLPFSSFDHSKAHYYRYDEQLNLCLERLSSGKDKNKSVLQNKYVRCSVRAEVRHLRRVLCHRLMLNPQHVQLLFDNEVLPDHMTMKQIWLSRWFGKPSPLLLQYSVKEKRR
UniProt Q6W2J9: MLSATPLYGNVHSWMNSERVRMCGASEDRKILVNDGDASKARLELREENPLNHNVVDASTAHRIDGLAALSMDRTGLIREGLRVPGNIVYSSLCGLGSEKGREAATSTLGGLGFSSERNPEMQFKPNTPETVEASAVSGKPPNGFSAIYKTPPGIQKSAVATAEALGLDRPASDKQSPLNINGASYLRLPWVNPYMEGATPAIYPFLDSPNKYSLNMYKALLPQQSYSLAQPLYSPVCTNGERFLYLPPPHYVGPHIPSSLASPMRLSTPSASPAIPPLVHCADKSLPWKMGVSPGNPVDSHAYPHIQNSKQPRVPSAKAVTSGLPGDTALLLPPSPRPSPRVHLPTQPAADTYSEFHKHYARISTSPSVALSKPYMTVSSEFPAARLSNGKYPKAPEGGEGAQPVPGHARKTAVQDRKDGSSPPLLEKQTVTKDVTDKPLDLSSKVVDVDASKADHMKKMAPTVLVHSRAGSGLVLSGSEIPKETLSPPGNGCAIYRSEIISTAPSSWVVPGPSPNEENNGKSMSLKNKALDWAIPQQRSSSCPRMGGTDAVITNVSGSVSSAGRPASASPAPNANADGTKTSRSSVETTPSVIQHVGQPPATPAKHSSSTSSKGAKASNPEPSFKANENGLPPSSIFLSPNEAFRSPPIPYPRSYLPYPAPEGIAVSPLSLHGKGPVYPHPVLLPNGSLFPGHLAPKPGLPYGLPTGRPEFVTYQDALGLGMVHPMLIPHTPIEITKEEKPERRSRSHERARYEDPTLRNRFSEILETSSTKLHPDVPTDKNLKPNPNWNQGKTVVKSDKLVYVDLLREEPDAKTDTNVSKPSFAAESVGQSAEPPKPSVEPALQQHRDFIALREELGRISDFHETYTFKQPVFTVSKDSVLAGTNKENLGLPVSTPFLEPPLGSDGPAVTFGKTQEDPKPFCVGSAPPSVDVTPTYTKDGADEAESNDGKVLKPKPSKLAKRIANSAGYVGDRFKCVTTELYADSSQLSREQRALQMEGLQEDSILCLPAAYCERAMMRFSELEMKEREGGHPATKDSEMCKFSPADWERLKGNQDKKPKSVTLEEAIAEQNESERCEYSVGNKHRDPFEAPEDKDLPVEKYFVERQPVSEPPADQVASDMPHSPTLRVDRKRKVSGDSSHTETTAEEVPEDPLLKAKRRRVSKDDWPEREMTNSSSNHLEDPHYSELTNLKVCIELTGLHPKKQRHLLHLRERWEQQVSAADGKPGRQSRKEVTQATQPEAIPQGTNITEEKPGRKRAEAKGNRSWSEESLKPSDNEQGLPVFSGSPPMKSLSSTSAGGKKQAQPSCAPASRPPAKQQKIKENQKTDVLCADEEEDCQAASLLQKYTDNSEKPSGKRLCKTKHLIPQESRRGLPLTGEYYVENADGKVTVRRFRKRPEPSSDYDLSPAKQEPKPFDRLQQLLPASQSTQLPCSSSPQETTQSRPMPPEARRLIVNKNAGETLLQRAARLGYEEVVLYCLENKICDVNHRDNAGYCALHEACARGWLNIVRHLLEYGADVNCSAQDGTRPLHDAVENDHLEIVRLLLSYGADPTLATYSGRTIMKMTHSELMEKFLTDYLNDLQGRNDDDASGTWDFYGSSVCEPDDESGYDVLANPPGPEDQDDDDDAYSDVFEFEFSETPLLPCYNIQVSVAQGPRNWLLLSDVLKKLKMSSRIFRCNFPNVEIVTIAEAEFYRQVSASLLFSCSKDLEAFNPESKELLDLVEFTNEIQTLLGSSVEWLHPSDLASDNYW
UniProt Q9H9S0: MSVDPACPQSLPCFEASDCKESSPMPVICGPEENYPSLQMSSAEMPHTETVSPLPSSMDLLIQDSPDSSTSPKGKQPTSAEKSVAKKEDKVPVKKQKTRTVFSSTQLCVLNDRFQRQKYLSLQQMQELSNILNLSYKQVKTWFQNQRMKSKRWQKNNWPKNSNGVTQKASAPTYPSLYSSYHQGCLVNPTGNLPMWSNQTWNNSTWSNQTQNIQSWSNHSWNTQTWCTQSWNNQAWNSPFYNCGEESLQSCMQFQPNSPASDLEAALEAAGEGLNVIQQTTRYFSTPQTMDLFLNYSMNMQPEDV
UniProt P35226: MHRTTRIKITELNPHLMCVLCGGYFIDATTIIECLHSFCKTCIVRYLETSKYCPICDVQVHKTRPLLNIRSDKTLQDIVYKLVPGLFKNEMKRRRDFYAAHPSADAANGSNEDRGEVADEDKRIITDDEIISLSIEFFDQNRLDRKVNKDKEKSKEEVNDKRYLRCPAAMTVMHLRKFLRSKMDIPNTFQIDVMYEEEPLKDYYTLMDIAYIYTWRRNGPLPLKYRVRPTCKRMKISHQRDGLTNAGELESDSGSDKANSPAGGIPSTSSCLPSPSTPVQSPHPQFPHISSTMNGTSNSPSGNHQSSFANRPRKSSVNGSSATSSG

These are yes or no findings as the source states them, for the method shown. Binding seen in cells or lysates may run through a third protein. Some results given as binding are weak or reduced against the parent protein; the word gives no strength.

Test [1] has as its target T1, DPPA4 (human (endogenous in NT2)) (UniProt Q7L190).
T1 sequence: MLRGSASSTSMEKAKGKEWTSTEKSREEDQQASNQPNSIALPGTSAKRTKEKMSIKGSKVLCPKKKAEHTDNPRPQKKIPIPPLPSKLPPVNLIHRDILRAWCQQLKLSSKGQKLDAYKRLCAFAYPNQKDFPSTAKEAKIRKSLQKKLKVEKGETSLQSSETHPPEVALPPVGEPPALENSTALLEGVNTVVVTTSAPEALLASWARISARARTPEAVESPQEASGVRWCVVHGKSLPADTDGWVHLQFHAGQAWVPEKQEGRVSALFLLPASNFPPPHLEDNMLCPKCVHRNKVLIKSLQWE
Kind of test: co-IP; endogenous proteins; antibody cross-linked to Protein A beads, incubated with NT2 nuclear lysate with 250 U/mL Benzonase at 4 °C overnight, washed 5 x 5 min in Buffer C100 (0.02% NP-40); western blot; IgG control.

In test [2] the target is PCGF1 (human (endogenous in NT2)) (UniProt Q9BSM1). The test is described as above.
In test [3] the target is BCOR (human (endogenous in NT2)) (UniProt Q6W2J9). The description is as above.
Test [4] deals with FLAG-tagged PCGF1 (human) (UniProt Q9BSM1). Description: co-IP; FLAG-tagged PCGF1 exogenously expressed in NT2 cells; M2 anti-FLAG agarose, nuclear lysate in low salt buffer (150 mM NaCl, 50 mM TRIS pH 8.0, 1 mM EDTA, 1% NP40), overnight at 4 °C, elution with 3xFLAG peptide; western blot for DPPA4. Background: Immunoblotting shows a protein as a band on a membrane.

Take BCOR (from UniProt Q6W2J9 1-1755): the results for the binding entry in test [1] and in test [2] were “no binding” and “binds”, respectively.

In the case of NANOG (from UniProt Q9H9S0 1-305), in test [2], the binding entry is “binds”.

Regarding “PCGF4 (BMI1) (from UniProt P35226 1-326)”, the binding entry in test [1], in test [2] and in test [3] was “no binding” each time.

B1: RYBP (protein, UniProt Q8N488 1-228)
chain: MTMGDKKSPTRPKRQAKPAADEGFWDCSVCTFRNSAEAFKCSICDVRKGTSTRKPRINSQLVAQQVAQQYATPPPPKKEKKEKVEKQDKEKPEKDKEISPSVTKKNTNKKTKPKSDILKDPPSEANSIQSANATTKTSETNHTSRPRLKNVDRSTAQQLAVTVGNVTVIITDFKEKTRSSSTSSSTVTSSAGSEQQNQSSSGSESTDKGSSRSSTPKGDMSAVNDESF
As for B1, the binding result in test [2] is reported as “binds”.

B2: DPPA4 (protein, UniProt Q7L190 1-304)
chain: MLRGSASSTSMEKAKGKEWTSTEKSREEDQQASNQPNSIALPGTSAKRTKEKMSIKGSKVLCPKKKAEHTDNPRPQKKIPIPPLPSKLPPVNLIHRDILRAWCQQLKLSSKGQKLDAYKRLCAFAYPNQKDFPSTAKEAKIRKSLQKKLKVEKGETSLQSSETHPPEVALPPVGEPPALENSTALLEGVNTVVVTTSAPEALLASWARISARARTPEAVESPQEASGVRWCVVHGKSLPADTDGWVHLQFHAGQAWVPEKQEGRVSALFLLPASNFPPPHLEDNMLCPKCVHRNKVLIKSLQWE
For the molecule B2, the binding entry in test [2] is “binds”; in test [3], “no binding”; in test [4] it was “binds”.
